# Assay results published in the supplement of paper PMC8728848.
# Some of the results follow.
# B1: SSR1 (Sclerotium rolfsii), A0A0M3KL30 (protein)
# chain: TYKITVRVYQTNPDAFFHPVEKTVWKYANGGTWTITDDQHVLTMGGSGTSGTLRFHADNGESFTATFGVHNYKRWCDIVTNLAADETGMVINQQYYSQKNREEARERQLSNYQVKNAKGRNFQIVYTEAEGNDLHANLIIG
# Experiments:
# Assay in all cases: glycan array binding signal (z-score within array); higher = stronger binding
# Conditions in all cases: glycan notation: IUPAC condensed, linker removed
# [1] = molecular target: Gal(b1-3)GlcNAc(b1-6)GalNAc
# Summary of the method: (§1)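 The Consortium for Functional Glycomics database supplied 3228 glycan arrays, of which those lacking an available protein sequence were dropped. The binding signal, a within-array Z-score, was averaged across arrays of the same protein sequence and across linkers. Negative scores can be read as non-binding.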
# [2] = molecular target: Gal(b1-3)GlcNAc(b1-6)[Gal(b1-3)]GalNAc
# Summary of the method: as §1
# Gal(b1-3)GlcNAc6S = molecular target: Gal(b1-3)GlcNAc6S
# Summary of the method: as §1
# [3] = molecular target: Gal(b1-3)[Fuc(a1-4)]GlcNAc
# Summary of the method: as §1
# [4] = molecular target: Gal(b1-3)[Fuc(a1-4)]GlcNAc(b1-2)Man
# Summary of the method: as §1
# [5] = molecular target: Gal(b1-3)[Fuc(a1-4)]GlcNAc(b1-2)Man(a1-3)[Gal(b1-3)[Fuc(a1-4)]GlcNAc(b1-2)Man(a1-6)]Man(b1-4)GlcNAc(b1-4)[Fuc(a1-6)]GlcNAc
# Summary of the method: as §1
# [6] = molecular target: Gal(b1-3)[Fuc(a1-4)]GlcNAc(b1-3)Gal(b1-3)[Fuc(a1-4)]GlcNAc
# Summary of the method: as §1
# [7] = molecular target: Gal(b1-3)[Fuc(a1-4)]GlcNAc(b1-3)Gal(b1-4)[Fuc(a1-3)]GlcNAc
# Summary of the method: as §1
# [8] = molecular target: Gal(b1-3)[Fuc(a1-4)]GlcNAc(b1-6)GalNAc
# Summary of the method: as §1
# [9] = molecular target: Gal(b1-3)[GlcNAc(b1-6)]GalNAc
# Summary of the method: as §1
# [10] = molecular target: Gal(b1-3)[Neu5Ac(a2-6)]GalNAc
# Summary of the method: as §1
# [11] = molecular target: Gal(b1-3)[Neu5Ac(a2-6)]GlcNAc(b1-4)Gal(b1-4)Glc
# Summary of the method: as §1
# [12] = molecular target: Gal(b1-3)[Neu5Ac(b2-6)]GalNAc
# Summary of the method: as §1
# Gal(b1-4)Gal = molecular target: Gal(b1-4)Gal
# Summary of the method: as §1
# [13] = molecular target: Gal(b1-4)GalNAc(a1-3)[Fuc(a1-2)]Gal(b1-4)GlcNAc
# Summary of the method: as §1
# [14] = molecular target: Gal(b1-4)GalNAc(b1-3)[Fuc(a1-2)]Gal(b1-4)GlcNAc
# Summary of the method: as §1
# Gal(b1-4)Glc = molecular target: Gal(b1-4)Glc
# Summary of the method: as §1
# Gal(b1-4)Glc6S = molecular target: Gal(b1-4)Glc6S
# Summary of the method: as §1
# Gal(b1-4)GlcNAc = molecular target: Gal(b1-4)GlcNAc
# Summary of the method: as §1
# [15] = molecular target: Gal(b1-4)GlcNAc(a1-6)Gal(b1-4)GlcNAc
# Summary of the method: as §1
# Gal(b1-4)GlcNAc(b1-2)Man = molecular target: Gal(b1-4)GlcNAc(b1-2)Man
# Summary of the method: as §1
# [16] = molecular target: Gal(b1-4)GlcNAc(b1-2)Man(a1-3)Man(b1-4)GlcNAc(b1-4)GlcNAc
# Summary of the method: as §1
# [17] = molecular target: Gal(b1-4)GlcNAc(b1-2)Man(a1-3)[Gal(b1-4)GlcNAc(b1-2)Man(a1-6)]Man(b1-4)GlcNAc(b1-4)GlcNAc
# Summary of the method: as §1
# [18] = molecular target: Gal(b1-4)GlcNAc(b1-2)Man(a1-3)[Gal(b1-4)GlcNAc(b1-2)Man(a1-6)]Man(b1-4)GlcNAc(b1-4)[Fuc(a1-6)]GlcNAc
# Summary of the method: as §1
# [19] = molecular target: Gal(b1-4)GlcNAc(b1-2)Man(a1-3)[Gal(b1-4)GlcNAc(b1-2)Man(a1-6)][Gal(b1-4)GlcNAc(b1-4)]Man(b1-4)GlcNAc(b1-4)[Fuc(a1-6)]GlcNAc
# Summary of the method: as §1
# [20] = molecular target: Gal(b1-4)GlcNAc(b1-2)Man(a1-3)[Gal(b1-4)GlcNAc(b1-2)Man(a1-6)][GlcNAc(b1-4)]Man(b1-4)GlcNAc(b1-4)[Fuc(a1-6)]GlcNAc
# Summary of the method: as §1
# [21] = molecular target: Gal(b1-4)GlcNAc(b1-2)Man(a1-3)[GlcNAc(b1-2)Man(a1-6)]Man(b1-4)GlcNAc(b1-4)GlcNAc
# Summary of the method: as §1
# [22] = molecular target: Gal(b1-4)GlcNAc(b1-2)Man(a1-3)[GlcNAc(b1-4)][Gal(b1-4)GlcNAc(b1-2)Man(a1-6)]Man(b1-4)GlcNAc(b1-4)GlcNAc
# Summary of the method: as §1
# [23] = molecular target: Gal(b1-4)GlcNAc(b1-2)Man(a1-3)[Man(a1-6)]Man(b1-4)GlcNAc(b1-4)GlcNAc
# Summary of the method: as §1
# [24] = molecular target: Gal(b1-4)GlcNAc(b1-2)Man(a1-6)Man(b1-4)GlcNAc(b1-4)GlcNAc
# Summary of the method: as §1
# [25] = molecular target: Gal(b1-4)GlcNAc(b1-2)Man(a1-6)[GlcNAc(b1-2)Man(a1-3)]Man(b1-4)GlcNAc(b1-4)GlcNAc
# Summary of the method: as §1
# [26] = molecular target: Gal(b1-4)GlcNAc(b1-2)Man(a1-6)[Man(a1-3)]Man(b1-4)GlcNAc(b1-4)GlcNAc
# Summary of the method: as §1
# [27] = molecular target: Gal(b1-4)GlcNAc(b1-2)[Gal(b1-4)GlcNAc(b1-4)]Man(a1-3)[Gal(b1-4)GlcNAc(b1-2)Man(a1-6)]Man(b1-4)GlcNAc(b1-4)GlcNAc
# Summary of the method: as §1
# [28] = molecular target: Gal(b1-4)GlcNAc(b1-2)[Gal(b1-4)GlcNAc(b1-4)]Man(a1-3)[Gal(b1-4)GlcNAc(b1-2)[Gal(b1-4)GlcNAc(b1-6)]Man(a1-6)]Man(b1-4)GlcNAc(b1-4)GlcNAc
# Summary of the method: as §1
# [29] = molecular target: Gal(b1-4)GlcNAc(b1-2)[Gal(b1-4)GlcNAc(b1-4)]Man(a1-3)[GlcNAc(b1-4)][Gal(b1-4)GlcNAc(b1-2)Man(a1-6)]Man(b1-4)GlcNAc(b1-4)GlcNAc
# Summary of the method: as §1
# [30] = molecular target: Gal(b1-4)GlcNAc(b1-2)[Gal(b1-4)GlcNAc(b1-4)]Man(a1-3)[GlcNAc(b1-4)][Gal(b1-4)GlcNAc(b1-2)[Gal(b1-4)GlcNAc(b1-6)]Man(a1-6)]Man(b1-4)GlcNAc(b1-4)GlcNAc
# Summary of the method: as §1
# [31] = molecular target: Gal(b1-4)GlcNAc(b1-2)[Gal(b1-4)GlcNAc(b1-6)]Man(a1-6)[Gal(b1-4)GlcNAc(b1-2)Man(a1-3)]Man(b1-4)GlcNAc(b1-4)GlcNAc
# Summary of the method: as §1
# [32] = molecular target: Gal(b1-4)GlcNAc(b1-2)[Gal(b1-4)GlcNAc(b1-6)]Man(a1-6)[Gal(b1-4)GlcNAc(b1-2)Man(a1-3)]Man(b1-4)GlcNAc(b1-4)[Fuc(a1-6)]GlcNAc
# Summary of the method: as §1
# [33] = molecular target: Gal(b1-4)GlcNAc(b1-2)[Gal(b1-4)GlcNAc(b1-6)]Man(a1-6)[GlcNAc(b1-4)][Gal(b1-4)GlcNAc(b1-2)Man(a1-3)]Man(b1-4)GlcNAc(b1-4)GlcNAc
# Summary of the method: as §1
# [34] = molecular target: Gal(b1-4)GlcNAc(b1-2)[Gal(b1-4)GlcNAc(b1-6)]Man(a1-6)[GlcNAc(b1-4)][Gal(b1-4)GlcNAc(b1-2)[Gal(b1-4)GlcNAc(b1-4)]Man(a1-3)]Man(b1-4)GlcNAc(b1-4)[Fuc(a1-6)]GlcNAc
# Summary of the method: as §1
# [35] = molecular target: Gal(b1-4)GlcNAc(b1-3)Gal(b1-3)GalNAc
# Summary of the method: as §1
# [36] = molecular target: Gal(b1-4)GlcNAc(b1-3)Gal(b1-3)GlcNAc
# Summary of the method: as §1
# [37] = molecular target: Gal(b1-4)GlcNAc(b1-3)Gal(b1-4)Glc
# Summary of the method: as §1
# [38] = molecular target: Gal(b1-4)GlcNAc(b1-3)Gal(b1-4)GlcNAc
# Summary of the method: as §1
# [39] = molecular target: Gal(b1-4)GlcNAc(b1-3)Gal(b1-4)GlcNAc(b1-2)Man(a1-3)[Gal(b1-4)GlcNAc(b1-3)Gal(b1-4)GlcNAc(b1-2)Man(a1-6)]Man(b1-4)GlcNAc(b1-4)GlcNAc
# Summary of the method: as §1
binder,measurement,setting,value
B1,glycan array binding signal (z-score),[1],-0.327
same,glycan array binding signal (z-score),[2],0.908
same,glycan array binding signal (z-score),Gal(b1-3)GlcNAc6S,-0.321
same,glycan array binding signal (z-score),[3],-0.333
same,glycan array binding signal (z-score),[4],-0.321
same,glycan array binding signal (z-score),[5],-0.309
same,glycan array binding signal (z-score),[6],-0.327
same,glycan array binding signal (z-score),[7],-0.326
same,glycan array binding signal (z-score),[8],-0.343
same,glycan array binding signal (z-score),[9],1.22
same,glycan array binding signal (z-score),[10],0.823
same,glycan array binding signal (z-score),[11],-0.35
same,glycan array binding signal (z-score),[12],0.881
same,glycan array binding signal (z-score),Gal(b1-4)Gal,-0.346
same,glycan array binding signal (z-score),[13],-0.624
same,glycan array binding signal (z-score),[14],-0.347
same,glycan array binding signal (z-score),Gal(b1-4)Glc,-0.337
same,glycan array binding signal (z-score),Gal(b1-4)Glc6S,-0.345
same,glycan array binding signal (z-score),Gal(b1-4)GlcNAc,-0.34
same,glycan array binding signal (z-score),[15],-0.329
same,glycan array binding signal (z-score),Gal(b1-4)GlcNAc(b1-2)Man,-0.331
same,glycan array binding signal (z-score),[16],-0.324
same,glycan array binding signal (z-score),[17],-0.338
same,glycan array binding signal (z-score),[18],-0.293
same,glycan array binding signal (z-score),[19],-0.324
same,glycan array binding signal (z-score),[20],-0.334
same,glycan array binding signal (z-score),[21],1.85
same,glycan array binding signal (z-score),[22],-0.342
same,glycan array binding signal (z-score),[23],-0.323
same,glycan array binding signal (z-score),[24],-0.337
same,glycan array binding signal (z-score),[25],3.01
same,glycan array binding signal (z-score),[26],-0.323
same,glycan array binding signal (z-score),[27],-0.328
same,glycan array binding signal (z-score),[28],-0.332
same,glycan array binding signal (z-score),[29],-0.34
same,glycan array binding signal (z-score),[30],-0.33
same,glycan array binding signal (z-score),[31],-0.34
same,glycan array binding signal (z-score),[32],-0.332
same,glycan array binding signal (z-score),[33],-0.336
same,glycan array binding signal (z-score),[34],-0.344
same,glycan array binding signal (z-score),[35],1.12
same,glycan array binding signal (z-score),[36],-0.338
same,glycan array binding signal (z-score),[37],-0.339
same,glycan array binding signal (z-score),[38],-0.336
same,glycan array binding signal (z-score),[39],-0.269
